# Assay results from the supplement of paper PMC12217912.
# Some of the results follow. Sequences were assembled here from the parent chain. Inactive controls read about 0.05.
# B1: TEV protease; numbered along this chain (parent)
# chain: MGESLFKGPRDYNPISSSICHLTNESDGHTTSLYGIGFGPFIITNKHLFRRNNGTLVVQSLHGVFKVKDTTTLQQHLVDGRDMIIIRMPKDFPPFPQKLKFREPQREERICLVTTNFQTKSMSSMVSDTSCTFPSGDGIFWKHWIQTKDGQCGSPLVSTRDGFIVGIHSASNFTNTNNYFTSVPKNFMELLTNQEAQQWVSGWRLNADSVLWGGHKVFMVKPEEPFQPVKEATQL
# Variants of: B1
# Assay: raw area under fraction-flipped curve 0-4 h after induction (AUC4h, not background-subtracted), DNA-recorder readout of cleavage of the substrate (dimensionless); higher = more cleavage of the substrate by the protease variant
# Conditions: temperature: 34 °C; time window: 0-4 h after rhamnose induction
# Procedure: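 In vivo DNA recorder in E. coli TOP10(DE3) ΔrhaA at 34 °C. Each TEVp single-site mutant (parent TEVp 0) is paired with a single-site variant of the 7-mer TEVs (canonical ENLYFQ|S). The substrate sits between flexible linkers in a Bxb1-sfGFP-TEVs-SsrA fusion, so cleavage stabilises Bxb1 and speeds flipping of a recombination array, read by NGS. The value is the raw area under the fraction-flipped curve over 0-4 h after rhamnose induction (AUC4h), with ≥20 reads per time point. It is not background-subtracted; inactive controls average about 0.047.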
# 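Further: Bxb1 expression induced with 0.2% (w/v) L-rhamnose at OD600 near 0.5, cultures sampled hourly, flipped fraction per protease–substrate barcode pair counted by paired-end Illumina sequencing.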
Variant,area with substrate ENLYFCS,area with substrate ENLYFDS,area with substrate ENLYFES,area with substrate ENLYFFS,area with substrate ENLYFIS,area with substrate ENLYFKS,area with substrate ENLYFNS,area with substrate ENLYFPS,area with substrate ENLYFTS,area with substrate ENLYFVS,area with substrate ENLYFWS,area with substrate ENLYFYS,area with substrate ENLYFHS,area with substrate ENLYFLS,area with substrate ENLYFRS,area with substrate ENLYFMS,area with substrate ENLYFSS,area with substrate ENLYFGS
N186P,0.0339,0.05,0.0575,0.0652,0.0454,0.0514,0.0628,0.0547,0.058,0.0411,0.0518,0.0586,–,–,–,–,–,–
L190R,0.0556,–,0.0663,–,0.0519,0.0624,0.074,0.0542,0.0538,0.0482,–,0.0586,0.0643,0.0686,0.0505,–,–,–
L191M,0.0272,0.0617,0.0667,0.0656,0.0555,0.0576,0.0614,0.0741,0.0614,0.0598,0.0671,0.0562,0.0714,–,0.0619,0.0628,–,–
Q194L,0.0647,0.0491,0.0547,0.0832,–,–,0.0621,0.0504,0.0618,–,0.0639,0.0494,–,–,0.0606,0.0818,0.05,–
E195M,0.0611,–,0.0571,–,0.0432,–,0.0574,0.0547,0.0582,–,0.0823,0.0568,–,–,0.0552,0.0627,–,–
W199L,0.0583,–,0.062,–,0.0617,–,0.0609,0.0592,–,0.0382,0.052,0.0527,–,–,0.0611,0.0597,–,0.0732
V200M,0.0559,–,0.0533,–,0.0547,0.0586,0.0835,0.0596,–,0.0585,0.0784,0.0544,0.0545,0.0593,0.053,0.0388,–,–
S201A,0.0728,–,0.0501,0.0797,0.0843,0.0559,0.0594,–,0.0485,–,0.0631,–,0.0519,0.0578,0.0596,0.0637,0.0607,–
A207N,0.0723,0.0603,0.0646,0.0638,0.0663,0.0645,–,0.0648,0.0543,–,0.0504,–,0.0648,0.05,0.0608,0.0598,–,–
V210S,0.0607,0.0633,–,0.0767,0.0559,0.0468,0.0629,0.0832,0.0547,–,–,0.06,0.0403,0.0554,–,0.0493,–,0.0508
L211P,0.0652,0.0669,0.0682,0.0633,0.0608,–,0.0641,0.0589,–,–,0.0507,–,–,–,–,0.0642,0.0755,–
W212Q,0.0574,0.084,0.079,0.0708,0.0589,–,0.0454,0.0627,0.0578,–,0.0615,0.0511,–,0.0585,0.0612,0.0761,0.0529,0.0592
V217D,0.0582,–,–,0.0584,0.0525,–,–,0.0645,0.0617,–,0.0627,–,–,–,–,0.0556,0.066,–
P225D,0.0582,–,–,0.0654,0.062,0.0585,–,0.06,–,0.0413,–,0.0451,–,–,0.0574,0.0551,–,–
V229I,0.0526,–,0.0492,–,0.0586,0.0533,–,0.0629,0.0668,–,0.0553,–,–,–,0.0619,0.0701,–,0.0567
